Among the data in publication PMC5753878 are binding values, retold here.

These are yes or no findings as the source states them, for the method shown. Binding seen in cells or lysates may run through a third protein. Some results given as binding are weak or reduced against the parent protein; the word gives no strength. Tags and fused reporters may be left off the sequences shown.

Test [1] concerns the target T1, (FLAG)3-(myc)12-Est2 (S. cerevisiae) (UniProt Q06163).
T1 sequence: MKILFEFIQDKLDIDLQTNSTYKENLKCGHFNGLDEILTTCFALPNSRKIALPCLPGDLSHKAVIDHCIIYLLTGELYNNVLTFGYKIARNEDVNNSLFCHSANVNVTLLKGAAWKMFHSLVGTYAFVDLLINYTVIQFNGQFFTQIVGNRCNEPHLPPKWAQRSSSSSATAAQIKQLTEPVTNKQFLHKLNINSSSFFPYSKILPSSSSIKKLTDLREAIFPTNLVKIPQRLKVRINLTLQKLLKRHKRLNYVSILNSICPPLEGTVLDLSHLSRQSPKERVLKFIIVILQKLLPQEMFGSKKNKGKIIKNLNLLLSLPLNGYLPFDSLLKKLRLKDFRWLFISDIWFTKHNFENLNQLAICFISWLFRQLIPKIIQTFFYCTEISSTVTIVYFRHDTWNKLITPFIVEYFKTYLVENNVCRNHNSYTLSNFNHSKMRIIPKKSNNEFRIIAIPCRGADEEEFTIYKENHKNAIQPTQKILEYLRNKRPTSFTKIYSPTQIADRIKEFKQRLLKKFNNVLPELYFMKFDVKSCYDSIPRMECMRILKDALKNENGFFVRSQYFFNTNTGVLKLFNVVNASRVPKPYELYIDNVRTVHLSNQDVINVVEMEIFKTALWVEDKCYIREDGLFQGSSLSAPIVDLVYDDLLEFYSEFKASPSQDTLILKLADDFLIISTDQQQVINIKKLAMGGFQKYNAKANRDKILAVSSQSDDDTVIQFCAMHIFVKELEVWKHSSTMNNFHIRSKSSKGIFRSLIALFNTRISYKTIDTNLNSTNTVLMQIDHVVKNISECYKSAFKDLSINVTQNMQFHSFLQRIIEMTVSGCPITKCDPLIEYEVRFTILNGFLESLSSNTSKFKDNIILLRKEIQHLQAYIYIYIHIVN
Nature of the test: co-IP; anti-FLAG IP of (FLAG)3-(myc)12-Est2 from yeast whole-cell extracts, anti-myc western for Est1 and Est2; TMG200 (10 mM Tris-HCl pH 8, 1 mM MgCl2, 5% glycerol, 200 mM NaCl2) + 0.1% Tween20, 2 hr at 4°.

In test [2] the target is T2, Cdc13 tagged with (FLAG)3 (S. cerevisiae) (UniProt P32797).
T2 sequence: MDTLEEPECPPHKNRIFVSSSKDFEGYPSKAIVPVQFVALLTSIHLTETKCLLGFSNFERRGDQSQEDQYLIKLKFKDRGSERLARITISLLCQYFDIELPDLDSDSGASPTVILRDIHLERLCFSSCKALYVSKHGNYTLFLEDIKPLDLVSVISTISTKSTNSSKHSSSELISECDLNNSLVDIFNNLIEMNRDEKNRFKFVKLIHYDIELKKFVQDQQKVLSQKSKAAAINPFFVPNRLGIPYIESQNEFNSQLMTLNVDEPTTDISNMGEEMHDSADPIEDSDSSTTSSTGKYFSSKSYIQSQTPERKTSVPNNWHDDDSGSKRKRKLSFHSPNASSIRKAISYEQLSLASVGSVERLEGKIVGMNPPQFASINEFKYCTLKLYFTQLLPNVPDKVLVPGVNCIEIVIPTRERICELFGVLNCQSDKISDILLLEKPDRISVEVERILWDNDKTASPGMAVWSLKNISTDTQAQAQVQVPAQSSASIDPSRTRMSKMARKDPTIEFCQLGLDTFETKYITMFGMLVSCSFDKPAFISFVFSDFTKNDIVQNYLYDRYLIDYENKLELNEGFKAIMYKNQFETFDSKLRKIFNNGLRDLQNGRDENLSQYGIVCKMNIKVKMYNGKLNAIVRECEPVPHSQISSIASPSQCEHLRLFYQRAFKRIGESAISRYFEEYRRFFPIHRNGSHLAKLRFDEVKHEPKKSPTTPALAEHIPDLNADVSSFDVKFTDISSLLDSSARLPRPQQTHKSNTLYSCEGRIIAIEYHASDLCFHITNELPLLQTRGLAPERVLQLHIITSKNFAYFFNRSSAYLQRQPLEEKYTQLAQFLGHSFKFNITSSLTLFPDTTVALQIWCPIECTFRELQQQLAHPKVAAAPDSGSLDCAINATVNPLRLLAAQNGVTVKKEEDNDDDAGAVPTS
Nature of the test: co-IP; anti-FLAG IP of Cdc13 tagged with (FLAG)3 from yeast extracts, Est1 tagged with (myc)12.

Test [3] has as its target T3, Cdc13-E252K tagged with (FLAG)3 (S. cerevisiae) (UniProt P32797).
T3 sequence: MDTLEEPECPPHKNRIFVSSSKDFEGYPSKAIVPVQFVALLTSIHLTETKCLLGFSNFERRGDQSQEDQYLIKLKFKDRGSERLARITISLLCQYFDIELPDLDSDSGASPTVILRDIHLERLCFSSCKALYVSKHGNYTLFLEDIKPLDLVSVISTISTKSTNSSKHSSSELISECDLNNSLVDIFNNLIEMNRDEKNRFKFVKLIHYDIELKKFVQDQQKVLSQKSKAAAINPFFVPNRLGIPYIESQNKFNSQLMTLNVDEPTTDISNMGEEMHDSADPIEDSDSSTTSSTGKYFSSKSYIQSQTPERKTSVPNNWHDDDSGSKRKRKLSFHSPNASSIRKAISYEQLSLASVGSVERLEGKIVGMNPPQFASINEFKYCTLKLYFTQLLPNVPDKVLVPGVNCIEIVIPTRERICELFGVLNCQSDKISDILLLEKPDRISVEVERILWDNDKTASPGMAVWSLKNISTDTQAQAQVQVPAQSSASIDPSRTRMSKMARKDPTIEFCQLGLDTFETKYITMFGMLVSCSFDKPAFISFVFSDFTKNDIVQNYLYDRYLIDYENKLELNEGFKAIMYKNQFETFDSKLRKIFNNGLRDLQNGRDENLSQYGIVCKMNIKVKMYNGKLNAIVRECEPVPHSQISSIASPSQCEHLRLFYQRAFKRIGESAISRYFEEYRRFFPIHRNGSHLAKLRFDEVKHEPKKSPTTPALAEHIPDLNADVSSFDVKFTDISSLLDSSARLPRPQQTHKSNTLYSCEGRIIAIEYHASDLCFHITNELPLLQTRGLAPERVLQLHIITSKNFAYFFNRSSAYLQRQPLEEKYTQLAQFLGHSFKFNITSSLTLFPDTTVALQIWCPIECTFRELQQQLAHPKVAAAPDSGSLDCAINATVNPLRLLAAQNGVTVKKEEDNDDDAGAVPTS
Described as above.

The target of test [4] is T4, Sme1 tagged with (FLAG)3 (S. cerevisiae) (UniProt Q12330).
T4 sequence: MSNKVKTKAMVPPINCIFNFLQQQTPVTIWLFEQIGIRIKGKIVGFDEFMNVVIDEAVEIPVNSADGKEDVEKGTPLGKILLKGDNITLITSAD
Nature of the test: co-IP; anti-FLAG IP of Pop1 or Sme1 tagged with (FLAG)3 from yeast extracts, Est1 tagged with (myc)12.

B1: C-terminal domain of Est1 (amino acids 340-699) with (myc)12 (domain or fragment, UniProt P17214 340-699)
chain: SNCWLLKEHLQMAALKYHSGNINVILENLAATMGSFDLMFTTRKSKEQKNKLKYADLSERQVFFLDLSFDFIANIIDVVIKPSWQKNMEDFRYLAIIRLLMCWIKSYRSILQYTHRHRKFCTSFALLLNDLINSPLNCSGNIYSHRPKRSYLFREDIIFREFSCINFALTDFNDDYVYDSPDMINNIIGCPTLTKVLSPKEECVLRIRSIIFSGMKFLEKNDTGVIWNASKYKFDLISPNIKIKRQIALSEISSKINVKTQQERVVSSRKVEAKRDEQQRKRAGKIAVTELEKQFANVRRTKKLSPLPEKDGVSSELVKHAASRGRKTITGPLSSDFLSYPDEAIDADEDITVQVPDTPT
Regarding B1, in test [1], the binding entry was “no binding”.

B2: Est1-(myc)12, wild-type Est1 telomerase subunit (protein, UniProt P17214 1-699)
chain: MDNEEVNEECMRLFFKNARAHLDKHLTSRLTCDENAYITFRCFLDGIHRKSTRFLEELLLKQENMYHNNNYERINDSVIPLVLKLLWLQIHEPTLQWFEHWFHDIMRLSNRRKFRVFRIFQKKMIQFFKITHRYYYDIIEHLCAKYDMNSVISNALFAKLNLMQYTDGLSTHEKIILNTSNPLTFSIVISLQRCVINLGSTHFYKTLLNKPSNKPKSVEGFEKSIRYLNIASLYLPAVGDTYFQRAKIYLITGKFSLYFFELVRGALVRIPSKCALNNLKDFILTPDFPERRRLMKKLAILVSKDLKGEKSFFEGQIVLQFLSIVEHTLVPQSWNASRASNCWLLKEHLQMAALKYHSGNINVILENLAATMGSFDLMFTTRKSKEQKNKLKYADLSERQVFFLDLSFDFIANIIDVVIKPSWQKNMEDFRYLAIIRLLMCWIKSYRSILQYTHRHRKFCTSFALLLNDLINSPLNCSGNIYSHRPKRSYLFREDIIFREFSCINFALTDFNDDYVYDSPDMINNIIGCPTLTKVLSPKEECVLRIRSIIFSGMKFLEKNDTGVIWNASKYKFDLISPNIKIKRQIALSEISSKINVKTQQERVVSSRKVEAKRDEQQRKRAGKIAVTELEKQFANVRRTKKLSPLPEKDGVSSELVKHAASRGRKTITGPLSSDFLSYPDEAIDADEDITVQVPDTPT
For B2, the binding result is “binds” in test [2] and “no binding” in test [3].

B3: Est1-K444E-(myc)12 (protein, UniProt P17214 1-699)
chain: MDNEEVNEECMRLFFKNARAHLDKHLTSRLTCDENAYITFRCFLDGIHRKSTRFLEELLLKQENMYHNNNYERINDSVIPLVLKLLWLQIHEPTLQWFEHWFHDIMRLSNRRKFRVFRIFQKKMIQFFKITHRYYYDIIEHLCAKYDMNSVISNALFAKLNLMQYTDGLSTHEKIILNTSNPLTFSIVISLQRCVINLGSTHFYKTLLNKPSNKPKSVEGFEKSIRYLNIASLYLPAVGDTYFQRAKIYLITGKFSLYFFELVRGALVRIPSKCALNNLKDFILTPDFPERRRLMKKLAILVSKDLKGEKSFFEGQIVLQFLSIVEHTLVPQSWNASRASNCWLLKEHLQMAALKYHSGNINVILENLAATMGSFDLMFTTRKSKEQKNKLKYADLSERQVFFLDLSFDFIANIIDVVIKPSWQKNMEDFRYLAIIRLLMCWIESYRSILQYTHRHRKFCTSFALLLNDLINSPLNCSGNIYSHRPKRSYLFREDIIFREFSCINFALTDFNDDYVYDSPDMINNIIGCPTLTKVLSPKEECVLRIRSIIFSGMKFLEKNDTGVIWNASKYKFDLISPNIKIKRQIALSEISSKINVKTQQERVVSSRKVEAKRDEQQRKRAGKIAVTELEKQFANVRRTKKLSPLPEKDGVSSELVKHAASRGRKTITGPLSSDFLSYPDEAIDADEDITVQVPDTPT
On to B3, for which the binding entry in test [3] is reported as “binds”.

B4: Est1-Y136D-(myc)12 (protein, UniProt P17214 1-699)
chain: MDNEEVNEECMRLFFKNARAHLDKHLTSRLTCDENAYITFRCFLDGIHRKSTRFLEELLLKQENMYHNNNYERINDSVIPLVLKLLWLQIHEPTLQWFEHWFHDIMRLSNRRKFRVFRIFQKKMIQFFKITHRYYDDIIEHLCAKYDMNSVISNALFAKLNLMQYTDGLSTHEKIILNTSNPLTFSIVISLQRCVINLGSTHFYKTLLNKPSNKPKSVEGFEKSIRYLNIASLYLPAVGDTYFQRAKIYLITGKFSLYFFELVRGALVRIPSKCALNNLKDFILTPDFPERRRLMKKLAILVSKDLKGEKSFFEGQIVLQFLSIVEHTLVPQSWNASRASNCWLLKEHLQMAALKYHSGNINVILENLAATMGSFDLMFTTRKSKEQKNKLKYADLSERQVFFLDLSFDFIANIIDVVIKPSWQKNMEDFRYLAIIRLLMCWIKSYRSILQYTHRHRKFCTSFALLLNDLINSPLNCSGNIYSHRPKRSYLFREDIIFREFSCINFALTDFNDDYVYDSPDMINNIIGCPTLTKVLSPKEECVLRIRSIIFSGMKFLEKNDTGVIWNASKYKFDLISPNIKIKRQIALSEISSKINVKTQQERVVSSRKVEAKRDEQQRKRAGKIAVTELEKQFANVRRTKKLSPLPEKDGVSSELVKHAASRGRKTITGPLSSDFLSYPDEAIDADEDITVQVPDTPT
In the case of B4, the binding entry is on record as “binds” in test [2] and “no binding” in test [4].
